Experimental data: PubChem BioAssay AID1963576 (National Center for Advancing Translational Sciences (NCATS), 2024)
Out of some 46,000 compounds screened, about 60 (0.1%) were called active. Another 3% or so got no clear call; they are omitted. Calls come from the whole dose curve; as a rule, active = well fitted inhibition curve with a large enough effect; inconclusive = small, poorly fitted or top-dose-only effect; inactive = no such curve, though single readings can be large or run the other way. The list shows a part of the results.

Assay: Primary qHTS assay for Inhibitors of ovarian cancer metastasis using an organotypic tumor microenvironment (TME) model.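 For activity change, negative = inhibition: plate controls were DMSO wells for no effect and tomatine positive control wells for full effect.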 Note: nearly all actives have a fitted effect of over 65% in size.
Settings: SKOV3ip1-GFP adhesion/invasion on 3D omental model, fluorescence; series mostly up to 45.8 µM; activity change, negative = inhibition: at the top concentration
How it was run: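 A 3D layer of primary human omental fibroblasts, mesothelial cells, fibronectin and collagen I, grown 48 hr, received SKOV3ip1-GFP cells in serum-free medium plus compounds at 0.36-46 umol/L. After 2 hr RT and 16 hr 37 C, fixed adherent GFP cells were counted; normalized to DMSO and tomatine.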

Activity change, negative = inhibition, inactive:
COc1ccc(CC(=O)Nc2sc3c(c2C(=O)Nc2cccc(C)c2)CCCCC3)cc1 -0.957%
CCCSc1oc(-c2ccco2)nc1S(=O)(=O)c1ccc(Cl)cc1 -5.73%
Cc1ccc2c(=O)cc(C(=O)Nc3ccc(S(=O)(=O)N4CCCCC4)cc3)oc2c1 -3.05%
CCOc1ccc(C(=O)Nc2nc(-c3ccc(Br)cc3)ns2)cc1 6.33%
COc1ccc(NC(=O)Cn2c(SCc3ccc(F)cc3)nc3cccnc32)c(OC)c1 1%
COc1cccc(N2CCN(C(=O)c3cc4c(=O)n(Cc5cccnc5)ccc4nc3C)CC2)c1 5.68%
CCC(C)n1c(=N)c(C(=O)NC2CCCC2)cc2c(=O)n3ccccc3nc21 (configuration not stated) -12.4%
Cc1ccc(NC(=O)CSc2cn(CC(=O)N3CCOCC3)c3ccccc23)cc1Cl 4.66%
CCOc1ccc(CNC(=O)Nc2ccc3c(c2)N(C)C(=O)c2ccccc2S3)cc1 5.39%
COc1ccc(NC(=O)C2CCCN(c3cnccn3)C2)c(OC)c1 (configuration not stated) 5.37%
CCOC(=O)/C(C#N)=C/c1ccc(-c2ccccc2)o1 -11.3%
Cc1ccc(-n2ncc3c(NC4CCCC4)ncnc32)cc1 0.487%
NS(=O)(=O)OC[C@@H]1C[C@@H](n2ccc3c(N[C@H]4CCc5ccccc54)ncnc32)C[C@H]1O -6.53%
O=S(=O)(c1ccccc1)c1nnn2c1nc(N1CCN(c3ccccc3)CC1)c1cc(Cl)ccc12 2.39%
Cc1ccc2c(c1)C(c1ccccc1)N(C(=O)c1ccc(S(=O)(=O)N3CCCC3)cc1)CC(=O)N2 (configuration not stated) -0.843%
Cn1c(=O)c2nc3ccc(NC(=O)C(F)(F)F)cc3nc2n(C)c1=O 3.95%
COc1ccc2sc(N(Cc3cccnc3)C(=O)c3cccs3)nc2c1 7.18%
N=C(N)c1ccc(OCCCCCOc2ccc(C(=N)N)cc2)cc1 15.1%
Cc1nc(SCc2ccccc2Cl)c(C#N)c(C)c1C -14.8%

outcome, inactive:
COc1ccccc1CNC(=O)c1cnc(N(C)C)nc1
COC(=O)C(NC(=O)CCc1c(C)nc2cc(-c3cccc(F)c3)nn2c1C)C(C)C (configuration not stated)
COC(=O)c1ccccc1NC(=O)CCC(=O)N1CC(C)Sc2ccccc21 (configuration not stated)
CC1CCn2c(nc3cc(C(=O)NCCc4ccccc4)ccc32)C1 (configuration not stated)
CCC(Cc1ccccc1)NC(=O)CCS(=O)(=O)c1cc2c(cc1Cl)NC(=O)CO2 (configuration not stated)
COc1ccc2sc(N(Cc3cccnc3)C(=O)C3COc4ccccc4O3)nc2c1 (configuration not stated)
Cc1ccc(NC(=O)CN2C(=O)CSc3ccc(S(=O)(=O)N(C)C)cc32)c(C)c1
Cc1cc(C)cc(NC(=O)c2sc3nc4n(c(=O)c3c2C)N=C(c2ccc(F)cc2)CS4)c1
